Data reported in the supplement of paper PMC4967469.

Experiments:
Assay in all cases: Viability of human cancer cell lines after 72 h of drug (GDSC screen)
LFM-A13 = compound: C/C(O)=C(\C#N)C(=O)Nc1cc(Br)ccc1Br [LFM-A13]; conditions: top dose 16 µM; top dose inferred
Method: (§1)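 Human cancer cell lines in 384-well plates, medium with 10% serum, drug for 72 h over a 256-fold dose range (nine 2-fold or five 4-fold steps up to the top dose). Adherent lines were fixed and stained with the nucleic acid dye Syto60, suspension lines read with resazurin; signal relative to control wells, capped at 0 and 100%. One two-parameter sigmoid per drug and line, fitted in a mixed model over all curves with the slope shared within a line.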

TW-37 = compound: CC(C)c1ccccc1Cc1cc(C(=O)Nc2ccc(S(=O)(=O)c3ccccc3C(C)(C)C)cc2)c(O)c(O)c1O [TW-37]; conditions: top dose 5 µM
Method: as §1

Bicalutamide = compound: CC(O)(CS(=O)(=O)c1ccc(F)cc1)C(=O)Nc1ccc(C#N)c(C(F)(F)F)c1 [Bicalutamide]; conditions: top dose inferred
Method: as §1

AUY922 = compound: CCNC(=O)c1noc(-c2cc(C(C)C)c(O)cc2O)c1-c1ccc(CN2CCOCC2)cc1 [AUY922]; conditions: top dose 0.256 µM; top dose inferred
Method: as §1

KIN001-270 = compound: Cc1ccc(Nc2cc(-c3cccc(N4C(=O)c5ccccc5C4=O)c3)ncn2)cc1NS(C)(=O)=O [KIN001-270]; conditions: top dose 20 µM; top dose inferred
Method: as §1

Nilotinib = compound: Cc1cn(-c2cc(NC(=O)c3ccc(C)c(Nc4nccc(-c5cccnc5)n4)c3)cc(C(F)(F)F)c2)cn1 [Nilotinib]; conditions: top dose 2 µM
Method: as §1

Gemcitabine = compound: Nc1ccn([C@@H]2O[C@H](CO)[C@@H](O)C2(F)F)c(=O)n1 [Gemcitabine]; conditions: top dose 1.024 µM
Method: as §1

T0901317 = compound: O=S(=O)(c1ccccc1)N(CC(F)(F)F)c1ccc(C(O)(C(F)(F)F)C(F)(F)F)cc1 [T0901317]; conditions: top dose 10.24 µM; top dose inferred
Method: as §1

MP470 = compound: S=C(NCc1ccc2c(c1)OCO2)N1CCN(c2ncnc3c2oc2ccccc23)CC1 [MP470]; conditions: top dose 20 µM; top dose inferred
Method: as §1

[1] = top dose 1.024 µM, screen: GDSC drug entry 150
[2] = top dose 10 µM, screen: GDSC drug entry 1502

Cell Line	AUC (LFM-A13)	IC50 (LFM-A13)	AUC (TW-37)	IC50 (TW-37)	AUC (Bicalutamide; [1])	IC50 (Bicalutamide; [1])	AUC (Bicalutamide; [2])	IC50 (Bicalutamide; [2])	AUC (AUY922)	IC50 (AUY922)	AUC (KIN001-270)	IC50 (KIN001-270)	AUC (Nilotinib)	IC50 (Nilotinib)	AUC (Gemcitabine)	IC50 (Gemcitabine)	AUC (T0901317)	IC50 (T0901317)	AUC (MP470)	IC50 (MP470)
NCI-H2227 (small cell lung carcinoma, semi-adherent)	0.986	> 16 µM	0.653	0.88 µM	0.985	> 1.02 µM	0.98	> 10 µM	0.895	> 0.256 µM	0.98	> 20 µM	0.986	> 2 µM	0.97	> 1.02 µM	0.986	> 10.2 µM	0.94	> 20 µM
647-V (bladder, adherent)	0.981	> 16 µM	0.447	0.224 µM	0.986	> 1.02 µM	0.985	> 10 µM	0.618	0.0338 µM	0.986	> 20 µM	0.987	> 2 µM	0.182	0.00705 µM	0.98	> 10.2 µM	0.968	> 20 µM
MEL-JUSO (melanoma, adherent)	0.981	> 16 µM	0.578	0.526 µM	0.984	> 1.02 µM	0.979	> 10 µM	0.471	0.0132 µM	0.974	> 20 µM	0.98	> 2 µM	0.095	< 0.004 µM	0.979	> 10.2 µM	0.935	> 20 µM
RERF-LC-Sq1 (lung squamous cell carcinoma, adherent)	0.933	> 16 µM	0.698	1.48 µM	0.968	> 1.02 µM	0.968	> 10 µM	0.979	> 0.256 µM	0.976	> 20 µM	0.941	> 2 µM	0.964	> 1.02 µM	0.966	> 10.2 µM	0.949	> 20 µM
NCI-H810 (large cell lung carcinoma, adherent)	0.947	> 16 µM	0.618	0.649 µM	0.987	> 1.02 µM	0.982	> 10 µM	0.49	0.015 µM	0.938	> 20 µM	0.988	> 2 µM	0.263	0.014 µM	0.983	> 10.2 µM	0.851	14.3 µM
SW780 (bladder, adherent)	0.985	> 16 µM	0.881	> 5 µM	0.96	> 1.02 µM	0.915	> 10 µM	0.98	> 0.256 µM	0.979	> 20 µM	0.986	> 2 µM	0.986	> 1.02 µM	0.984	> 10.2 µM	0.63	2.96 µM
VMRC-MELG (melanoma, adherent)	0.952	> 16 µM	0.533	0.387 µM	0.989	> 1.02 µM			0.619	0.0346 µM	0.985	> 20 µM	0.988	> 2 µM	0.985	> 1.02 µM	0.982	> 10.2 µM	0.958	> 20 µM
SW1710 (bladder, adherent)	0.95	> 16 µM	0.554	0.44 µM	0.984	> 1.02 µM	0.962	> 10 µM	0.319	0.00489 µM	0.98	> 20 µM	0.985	> 2 µM	0.059	< 0.004 µM	0.965	> 10.2 µM	0.954	> 20 µM
MC-IXC (neuroblastoma, adherent)	0.996	> 16 µM	0.332	0.122 µM	0.996	> 1.02 µM	0.993	> 10 µM	0.566	0.0231 µM	0.99	> 20 µM	0.996	> 2 µM	0.119	0.00688 µM	0.919	8.01 µM	0.906	14 µM
H2869 (mesothelioma, adherent)	0.963	> 16 µM	0.689	1.21 µM	0.983	> 1.02 µM	0.982	> 10 µM	0.645	0.0446 µM	0.984	> 20 µM	0.98	> 2 µM	0.766	0.465 µM	0.984	> 10.2 µM	0.935	> 20 µM
GMS-10 (glioma, adherent)	0.976	> 16 µM	0.564	0.467 µM	0.981	> 1.02 µM			0.686	0.053 µM	0.987	> 20 µM	0.988	> 2 µM	0.966	> 1.02 µM	0.988	> 10.2 µM	0.974	> 20 µM
G-361 (melanoma, adherent)	0.975	> 16 µM	0.411	0.18 µM			0.981	> 10 µM	0.53	0.0193 µM	0.988	> 20 µM	0.988	> 2 µM	0.243	0.0121 µM	0.988	> 10.2 µM	0.868	17 µM
CAL-29 (bladder, adherent)	0.955	> 16 µM	0.488	0.289 µM	0.984	> 1.02 µM	0.979	> 10 µM	0.98	> 0.256 µM	0.981	> 20 µM	0.983	> 2 µM	0.3	0.0167 µM	0.983	> 10.2 µM	0.975	> 20 µM
MHH-ES-1 (Ewing sarcoma, adherent)	0.94	> 16 µM	0.568	0.478 µM	0.986	> 1.02 µM	0.98	> 10 µM	0.404	0.00875 µM	0.96	> 20 µM	0.947	> 2 µM	0.132	0.0045 µM	0.979	> 10.2 µM	0.912	> 20 µM
UACC-893 (breast, adherent)	0.9	> 16 µM	0.708	1.49 µM	0.983	> 1.02 µM	0.942	> 10 µM	0.683	0.0622 µM	0.961	> 20 µM	0.972	> 2 µM	0.923	> 1.02 µM	0.975	> 10.2 µM	0.675	4.57 µM
H2373 (mesothelioma, adherent)	0.887	> 16 µM	0.507	0.327 µM	0.983	> 1.02 µM	0.964	> 10 µM	0.722	0.0811 µM	0.963	> 20 µM	0.983	> 2 µM	0.636	0.168 µM	0.957	> 10.2 µM	0.949	> 20 µM
H2369 (mesothelioma, adherent)	0.961	> 16 µM	0.504	0.321 µM	0.987	> 1.02 µM	0.981	> 10 µM	0.468	0.0131 µM	0.978	> 20 µM	0.981	> 2 µM	0.634	0.152 µM	0.981	> 10.2 µM	0.875	> 20 µM
Hs939-T (melanoma, adherent)	0.983	> 16 µM	0.483	0.279 µM	0.984	> 1.02 µM	0.985	> 10 µM	0.687	0.0563 µM	0.965	> 20 µM	0.949	> 2 µM	0.821	0.669 µM	0.986	> 10.2 µM	0.97	> 20 µM
ESS-1 (endometrium, adherent)	0.963	> 16 µM	0.383	0.155 µM	0.988	> 1.02 µM	0.989	> 10 µM	0.591	0.0276 µM	0.989	> 20 µM	0.99	> 2 µM	0.105	< 0.004 µM	0.973	> 10.2 µM	0.948	> 20 µM
CAL-27 (head and neck, adherent)	0.976	> 16 µM	0.395	0.16 µM	0.986	> 1.02 µM	0.939	> 10 µM	0.57	0.025 µM	0.979	> 20 µM	0.955	> 2 µM	0.25	0.012 µM	0.97	> 10.2 µM	0.899	> 20 µM
PCI-30 (head and neck, adherent)	0.982	> 16 µM	0.75	1.97 µM	0.982	> 1.02 µM	0.983	> 10 µM	0.817	0.185 µM	0.979	> 20 µM	0.936	> 2 µM	0.984	> 1.02 µM	0.97	> 10.2 µM	0.954	> 20 µM
CCK-81 (large intestine, adherent)	0.988	> 16 µM	0.762	1.69 µM	0.988	> 1.02 µM	0.984	> 10 µM	0.824	0.141 µM	0.966	> 20 µM	0.99	> 2 µM	0.858	0.762 µM	0.98	> 10.2 µM	0.915	> 20 µM
EFO-21 (ovary, adherent)	0.968	> 16 µM	0.772	2.84 µM	0.979	> 1.02 µM	0.958	> 10 µM	0.681	0.0646 µM	0.97	> 20 µM	0.98	> 2 µM	0.47	0.0511 µM	0.979	> 10.2 µM	0.943	> 20 µM
SCC-9 (head and neck, adherent)	0.971	> 16 µM	0.625	0.762 µM	0.98	> 1.02 µM	0.969	> 10 µM	0.702	0.0699 µM	0.937	> 20 µM	0.981	> 2 µM	0.98	> 1.02 µM	0.909	> 10.2 µM	0.935	> 20 µM

By IC50 is meant the dose at which the fit gives 50% viability; a fit beyond the top or the lowest dose is shown as a bound at that dose. AUC, from the same fit, is the share of area under the viability curve across the 256-fold dose range; values near 1 show little effect. For part of these data: The top dose, if marked as inferred, comes from the curve model; the source does not state it. For part of these data: An entry number marks a drug with two screens in the source, which often give different values.
